# From PubChem BioAssay AID1240 (Sanford-Burnham Center for Chemical Genomics, 2008)
# Among all 50,000 compounds or so, about 800 (1.6%) showed an effect of 50% or more. The list shows a part of the results.
# Biological target: Bcl-2-like protein 10 (Homo sapiens) (UniProt Q9HD36)
# Assay: TR3 peptide-Bcl-B binding displacers, biochemical primary FP assay, phenotype converters (AID 1240);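 note: 0% = Bcl-B with tracer peptide and DMSO and 100% = tracer peptide lacking Bcl-B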
# Details: GST-Bcl-B / FITC-TR3 peptide fluorescence polarization; stronger effect = higher value; compound at 3.75 mg/L
# UniProt Q9HD36, sequence (Q9HD36 whole entry, looked up): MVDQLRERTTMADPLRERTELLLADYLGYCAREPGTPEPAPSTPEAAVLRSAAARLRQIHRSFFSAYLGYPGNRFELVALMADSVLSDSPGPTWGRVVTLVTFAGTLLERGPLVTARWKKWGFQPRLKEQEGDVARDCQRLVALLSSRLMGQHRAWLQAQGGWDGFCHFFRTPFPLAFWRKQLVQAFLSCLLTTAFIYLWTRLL
row,SMILES,displacement [%]
1,N/C(=N\OC(=O)c1ccccc1F)c1ccc(Br)cc1,14.3
2,O=c1/c(=C/c2cccc(OCCOc3ccc(Br)cc3)c2)sc2nc3ccccc3n12,6.6
3,CCOC(=O)c1oc2c(c1C)C(Cl)=C(C=O)CC2,15.1
4,COc1ccccc1CN1CCN(S(=O)(=O)c2ccc(Cl)cc2)CC1,-9.1
5,O=C(/C=C/c1cccc(C(F)(F)F)c1)Nc1cccc([N+](=O)[O-])c1,20.4
6,COc1ccc(C(=O)N/C(=C\c2ccc(-c3cccc([N+](=O)[O-])c3)o2)C(=O)NCCN2CCOCC2)cc1,9.8
7,CSCCC(NC(=O)c1ccc(C)o1)C(=O)O (centres undefined),10.7
8,CCC/C(O)=C1\C(=O)CC(C)(C)CC1=NCCO,1.4
9,NC1=NC(=O)/C(=C/c2cccc(OS(=O)(=O)c3ccc([N+](=O)[O-])cc3)c2)S1,1.1
10,O=C(CN1C(=O)c2ccccc2C1=O)Nc1ccccc1C(=O)N1CCOCC1,-6.2
11,O=[N+]([O-])c1ccc(N2CCOCC2)cc1Sc1cccc2cccnc12,8.4
12,O=C(/C=C/c1ccc(-c2cc(Cl)ccc2Cl)o1)c1ccc(F)cc1,-25.9
13,Cc1cc(C)nc(SC(C)C(=O)N/N=C/c2ccccc2Cl)n1 (centres undefined),3.2
14,Cc1ccc(Cl)c(OCCCCN2CCC(C)CC2)c1,-4.6
15,CCOC(=O)c1cnc2cc(-c3cccc(Cl)c3)[nH]n2c1=O,-7.6
16,Cc1ccc(N(CC(=O)Nc2c(C)n(C)n(-c3ccccc3)c2=O)S(C)(=O)=O)cc1,-2.2
17,Fc1ccccc1OCCCn1ccnc1,15.9
18,CC(NC(=O)C(=O)NCCN1CCN(C(=O)c2ccco2)CC1)c1ccccc1 (centres undefined),-8.5
19,Cc1ccc(-c2n[nH]c(=S)c3ccccc23)cc1C,7.3
20,COc1ccc(NC(=O)C2CC(O)CN2C(=O)OCc2ccccc2)cc1 (centres undefined),2.2
21,COc1ccc(S(=O)(=O)N(CC(=O)NCCc2ccc(OC)c(OC)c2)Cc2ccccc2)cc1,0.4
22,COc1ccc(NCc2cccnc2)cc1,16.6
23,Cc1ccc(/C=C2\SC(=S)N(CCC(=O)Nc3nccs3)C2=O)cc1,19.4

row,SMILES,displacement [%]
1,O=C(Nc1nc(-c2ccc(Cl)cc2)cs1)C1CC1,4.4
2,CC1CCN(c2ccc([N+](=O)[O-])c(SCCO)c2)CC1,13.2
3,COc1ccc(/C=N/n2cnnc2)cc1Cn1nc(C)c([N+](=O)[O-])c1C,12.3
4,Cc1ccc(N2C(=O)NC(=O)/C(=C\c3ccc(I)o3)C2=O)cc1C,-8.1
5,CCOc1ccc(C(=O)Nc2ccc(I)cc2Cl)cc1,2.8
6,COc1ccc(-n2c(=O)c3c4c(sc3n3c(SCC(N)=O)nnc23)COC(C)(C)C4)cc1,1.9
7,CC(=O)N(C)c1ccc(NC(=O)c2cccs2)cc1,-7
8,CCc1ccc(NC(=O)COc2cc(C)c(Cl)c(C)c2)cc1,30.2
9,CCOC(=O)C1=C(C)N=c2s/c(=C\c3ccc(F)cc3)c(=O)n2C1c1cccc(OC)c1 (centres undefined),16.8
10,Clc1cccc(C2Nc3cccc4cccc(c34)N2)c1,19.7
11,Cc1nc2cc(-c3cccc(F)c3)nn2c(C)c1Cl,8.5
12,Cc1ccc2nc(-c3ccc(NC(=O)COc4ccc([N+](=O)[O-])cc4)cc3)oc2c1,-2.6
13,COc1ccccc1/C=C/C(=O)c1ccc(-c2ccccc2)cc1,8.7
14,COc1ccc(S(=O)(=O)Nc2ncccc2O)cc1,4.4
15,CCOc1ccc(NC(=S)NC(NC(=O)c2cccc(OC)c2)C(Cl)(Cl)Cl)cc1 (centres undefined),-5.8
16,Cc1ccc(C(=O)Nc2ccc(I)cc2C(=O)O)o1,6.1
17,COc1cccc(OCCNC(=O)C(c2ccccc2)c2ccccc2)c1,-14.1
18,Fc1ccc(-c2nnc(-c3ccc(F)cc3)o2)cc1,-1
19,CCOc1cccc(C(=O)Nc2ccc3nn(-c4ccc(F)cc4)nc3c2)c1,10.1
20,COc1ccc(O/C(=N\S(=O)(=O)c2ccccc2)c2ccccc2)cc1,7
21,N/C(=N\OC(=O)CCc1ccccc1)c1ccc(Br)cc1,3
22,COc1ccc(CCNC(=O)/C=C\c2ccccc2)cc1OC,6.7
23,O=C1CC(c2ccccc2)CC2=C1C(c1ccc(OCc3ccccc3)cc1)Nc1ccccc1N2 (centres undefined),5.3

row,SMILES,displacement [%]
1,CC(C)(C)NC(=O)C(=O)NCc1ccc(Cl)cc1,8.2
2,O=C1CS/C(=N/N=C/c2ccccc2[N+](=O)[O-])N1,1.8
3,CCC(C)NC(=O)Nc1cccc(Cl)c1 (centres undefined),1.6
4,Cc1cccc(NC(NC(=O)c2ccccc2Cl)C(Cl)(Cl)Cl)c1 (centres undefined),1
5,COc1cc2nc(-c3ccc([N+](=O)[O-])cc3)oc(=O)c2cc1OC,78
6,COc1ccc(NC(=O)C2(C)CC3c4ccccc4C2c2ccccc23)cc1 (centres undefined),0.2
7,COC(=O)C1=C(C(=O)OC)SC(=C2C(=S)C(C)(C)N(C(=O)c3cccc(C)c3)c3ccc(OC)cc32)S1,-4.1
8,COc1cc(C2C3C(C)N(C)C(=O)N(C)C3N(C)C(=O)N2C)ccc1O (centres undefined),2.6
9,CCOC(=O)C1=C(CC)NC2=C(C(=O)CCC2)C1c1cc(OC)ccc1OC (centres undefined),3.8
10,O=C(CSC1=NCCS1)n1c2ccccc2c2ccccc21,-3.7
11,Cc1ccc(/C=N/Nc2cccc3cccnc23)c(O)c1,-8.5
12,CCOc1ccc(/C=C/c2nc(O)c([N+](=O)[O-])c(=O)[nH]2)cc1,-5.9
13,O=C1NC(=O)N(c2ccc(Br)cc2)C(=O)/C1=C/c1ccc2c(c1)OCO2,-17.6
14,Cc1cccc(C)c1NC(=O)CSCC(=O)Nc1ccc2ccccc2c1,4.7
15,COc1ccc(C2=C(Nc3cccc([N+](=O)[O-])c3)c3ccccc3C2=O)cc1,14
16,COC(=O)C1=C(C)N(Cc2cccnc2)C(=O)/C1=C\c1cccc(Cl)c1Cl,4.4
17,COc1cc(/C=C2\C(=O)NC(=O)N(c3ccc4c(c3)OCO4)C2=O)ccc1OCc1ccccc1F,-17.3
18,CCOC(=O)c1c(NC(=O)/C=C/c2ccc(OC)cc2)sc(C)c1C,7.3
19,Cc1sc(NC(=O)CC(c2ccccc2)c2ccccc2)c(C(N)=O)c1C,-2.3
20,Cc1nc2sc(C(=O)c3ccc(F)cc3)c(N)c2c(C)c1C(=O)Nc1ccccc1,0
21,CCOc1ccc(N2C(=O)CC(N3CCC(O)CC3)C2=O)cc1 (centres undefined),-2.2
22,O=C(/C=C/c1ccco1)Nc1ccc(-c2nc3ncccc3o2)cc1,-8.2
23,COc1ccc(NC(=O)CN(c2ccc(Cl)cc2)S(=O)(=O)c2ccccc2)cc1,2.8
